PubChem BioAssay AID588591 (National Center for Advancing Translational Sciences (NCATS), 2011)
Screen size: about 390,000 compounds; about 4,700 (1.2%) were called active. The shares of active, inactive and inconclusive entries below differ from those in the screen. Calls follow the shape of the dose curve; as a rule, active = well fitted inhibition curve with a large enough effect; inconclusive = small, poorly fitted or top-dose-only effect, or another doubt; inactive = no such curve, though single readings can be large or run the other way. Where the call is inconclusive, the potency comes from a doubtful curve fit.

Target: DNA polymerase eta (Homo sapiens) (UniProt Q9Y253)
Test: qHTS for Inhibitors of Polymerase Eta
Details: recombinant Pol eta, fluorescent DNA replication assay; series mostly up to 114 µM
Excerpt: The Y-family of DNA polymerases, such as Pol eta, are specifically involved in DNA repair. Pol eta copies undamaged DNA with a lower fidelity than other DNA-directed polymerases. However, it accurately replicates UV-damaged DNA; when thymine dimers are present, this polymerase inserts the complementary nucleotides in the newly synthesized DNA, thereby bypassing the lesion and suppressing the mutagenic effect of UV-induced DNA damage. […] Thus, while pol eta's (and most likely iota's) normal function is to protect humans against the deleterious consequences of DNA damage, under certain conditions they can have deleterious effects on human health. As a consequence, we propose to utilize a high throughput replication assay to identify small molecule inhibitors of pol eta. In a collaboration between the National Institute of Child Health & Human Development (NICHD) and NIH Chemical Genomics Center, a high-throughput, fluorescent screen was developed to screen the NIH Molecular Libraries Small Molecule Repository (MLSMR). This screen is used to identify inhibitors of pol eta. NIH Chemical Genomics Center [NCGC] NIH Molecular Libraries Probe Centers Network [MLPCN] MLPCN Grant: MH090825 Assay Submitter (PI): Roger Woodgate, NICHD)
Three microliters of reagents (buffer in column 3 and 4 as negative control and 10 nM Pol eta in columns 1, 2, and 5-48) were dispensed into a 1,536-well black solid-bottomed plate. Compounds (23 nL) were transferred via Kalypsys pin tool equipped with 1536-pin array. The plates were then incubated for 15 min at room temperature, and 1 µL substrate (50 nM final concentration) was added to start the reaction and kinetically read twice at 0 min and 10 min on the Viewlux reader
Potency is read from the fitted curve at half-maximal effect; tags tell the direction and shape of the fitted curve.

Chain of UniProt Q9Y253 (Q9Y253 whole entry, looked up): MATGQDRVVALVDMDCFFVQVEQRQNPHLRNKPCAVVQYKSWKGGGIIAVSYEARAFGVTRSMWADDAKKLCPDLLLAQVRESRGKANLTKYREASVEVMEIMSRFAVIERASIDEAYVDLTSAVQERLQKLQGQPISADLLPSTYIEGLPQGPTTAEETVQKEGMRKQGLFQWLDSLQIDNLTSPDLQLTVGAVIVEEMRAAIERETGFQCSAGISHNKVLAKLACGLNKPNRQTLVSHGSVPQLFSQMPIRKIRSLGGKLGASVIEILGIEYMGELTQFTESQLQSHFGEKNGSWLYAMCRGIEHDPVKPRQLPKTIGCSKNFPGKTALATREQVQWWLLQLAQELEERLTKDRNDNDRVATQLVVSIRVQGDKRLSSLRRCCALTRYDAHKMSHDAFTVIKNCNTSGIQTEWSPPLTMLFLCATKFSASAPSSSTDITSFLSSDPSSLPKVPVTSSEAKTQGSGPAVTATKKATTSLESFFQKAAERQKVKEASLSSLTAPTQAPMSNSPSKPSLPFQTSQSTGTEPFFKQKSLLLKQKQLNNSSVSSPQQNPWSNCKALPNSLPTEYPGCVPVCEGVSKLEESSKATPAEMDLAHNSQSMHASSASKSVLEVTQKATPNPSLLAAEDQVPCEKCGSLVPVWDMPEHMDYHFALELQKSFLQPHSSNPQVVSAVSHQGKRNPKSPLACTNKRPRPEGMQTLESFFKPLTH

Row | SMILES | Potency
1 | CCc1ccc(S(=O)(=O)Nc2cc(SCC(=O)O)c(O)c3ccccc23)cc1 | active: 50.1 µM
2 | CCOc1ccc2[nH]c(C(=O)N/N=C/c3cc(OC)c(OC)c(OC)c3)cc2c1 | inconclusive: 25.1 µM [inhibitor, partial curve]
3 | CCC[n+]1c2ccccc2cc2ccccc21 | inactive
4 | Cc1nc2c(Br)c3nc(C(F)(F)F)[nH]c3c(Br)c2[nH]1 | inconclusive: 28.2 µM [inhibitor, partial curve, poor fit]
5 | C/C=C\C=C\C(=O)N1CC2(CC(c3cccc(NC(=O)/C(C)=C\C)c3)=NO2)C[C@H]1C(N)=O (stereo partly drawn) | inconclusive: 28.2 µM [inhibitor, single point]
6 | CC(=O)c1ccc(NC(=O)c2cc(=O)[nH]c3ccccc23)cc1 | inactive
7 | O=C(Nc1cccc(S(=O)(=O)N2CCCCC2)c1)C1CC(=O)N(Cc2ccccc2)C1 (stereo not drawn) | inconclusive: 89.1 µM [inhibitor, partial curve, poor fit]
8 | CCOc1ccc(C(=O)NCc2ccco2)cc1 | inconclusive: 79.4 µM [inhibitor, partial curve]
9 | COc1ccccc1NC(=O)c1nn(-c2ccc(Cl)cc2)ccc1=O | inconclusive: 2.82 µM [inhibitor, full curve]
10 | CCOc1ccc(CC(=O)NCc2ccc3c(c2)CCN3C(=O)c2ccccc2)cc1OCC | inactive
11 | CCn1nnc2cc(C(=O)Nc3cc(C)ccc3C)ccc21 | inactive
12 | CCN(CC)CCNc1ncnc2c1sc1nc(N3CCCC3)c3c(c12)CC(C)(C)OC3 | inconclusive: 89.1 µM [inhibitor, partial curve, poor fit]
13 | Cc1ccc(-c2cc3ncc4c(n3n2)-c2cc(Cl)ccc2OC4)cc1 | inactive
14 | Cc1ccccc1CNC(=O)CCC(=O)N1CCSc2ccccc21 | inactive
15 | Cn1c(=O)n(C)c2cc(S(=O)(=O)Nc3ccccc3O)ccc21 | inconclusive: 31.6 µM [inhibitor, partial curve, poor fit]
16 | O=C(CN1C(=O)c2ccccc2S1(=O)=O)Nc1ncc(Cl)cc1Cl | active: 22.4 µM
17 | Cc1c(C(=O)NNC(=O)c2csc(N3CCOCC3)n2)oc2ccccc12 | inconclusive: 56.2 µM [inhibitor, partial curve]
18 | Cc1ccccc1-c1nc(C(=O)NCC2CCCO2)cc2c1[nH]c1ccccc12 (stereo not drawn) | inconclusive: 89.1 µM [inhibitor, partial curve, poor fit]
19 | CCCCc1c(C)nc2nc(SCc3ccc(Cl)cc3)[nH]n2c1=O | inconclusive: 39.8 µM [inhibitor, single point]
20 | O=C(COC(=O)c1ccc(F)cc1F)Nc1ncccn1 | active: 22.4 µM
21 | O=C(O)c1ccc(/C=N/NC(=O)c2cc(-c3ccc4c5c(cccc35)CC4)n[nH]2)cc1 | active: 25.1 µM
22 | CCn1c(C(=O)Nc2ccc(C)cc2C)cc2sc(Cl)cc21 | inactive
23 | CCOC(=O)c1ccccc1NC(=O)c1cc2ccc3cccnc3c2[nH]1 | inconclusive: 25.1 µM [inhibitor, partial curve, poor fit]

Row | SMILES | Potency
24 | Nc1cc(N)cc(-c2nc3ccccc3[nH]2)c1 | inconclusive: 22.4 µM [inhibitor, partial curve, poor fit]
25 | CC[N+]1=C(C)C(C)(C)c2cc(C)ccc21 | inconclusive: 56.2 µM [inhibitor, partial curve, poor fit]
26 | Cc1cc(C(=O)OCC(=O)N2CC(C)OC(C)C2)c2ccccc2n1 (stereo not drawn) | inactive
27 | COc1ccc(C(=O)c2cc3ccc(O)cc3oc2=O)cc1 | inactive
28 | COc1cc(Br)c(C(=O)c2nccc3cc(OC)c(OC)cc23)cc1OC | active: 79.4 µM
29 | COc1ccc(C2=NS(=O)(=O)N(C)C(C(=O)N3CCc4ccccc4C3)=C2)cc1OC | inconclusive: 100 µM [inhibitor, partial curve, poor fit]
30 | CCn1c(C)nc2cc(C(=O)N/N=C/c3ccc(O)c(O)c3O)ccc21 | active: 5.01 µM
31 | O=C(N/N=C/c1ccncc1)c1ccccn1 | inactive
32 | Cc1ccc(N2C(=O)N(CC(=O)N3c4ccccc4CC3C)C(=O)C2C)cc1 (stereo not drawn) | inconclusive: 39.8 µM [inhibitor, single point]
33 | CCCCNC(=O)CCC(=O)Nc1ccc2nc(N3CCC(C)CC3)cc(C)c2c1 | inconclusive: 50.1 µM [inhibitor, partial curve, poor fit]
34 | CCCC(NC(=S)NCC1CCCO1)C12CC3CC(CC(C3)C1)C2 (stereo not drawn) | inactive
35 | O=c1cc(O)c2c(=O)n(Cc3ccccc3)c3ccccc3c2o1 | inconclusive: 89.1 µM [inhibitor, single point]
36 | Cc1ccc(NS(=O)(=O)c2ccc(C(=O)N3CCN(S(=O)(=O)c4ccccc4)CC3)cc2)cc1 | inconclusive: 89.1 µM [inhibitor, partial curve, poor fit]
37 | O=C(COC(=O)c1cc2c(s1)CCC2)Nc1ccc(F)cc1 | active: 17.8 µM
38 | COc1ccc(OC)c(NC(=O)c2cccc(N3C(=O)C4C5C=CC(C6CC56)C4C3=O)c2)c1 (stereo not drawn) | inconclusive: 79.4 µM [inhibitor, partial curve, poor fit]
39 | Cc1ccc(Nc2nc(-c3ccc(O)cc3O)cs2)nc1 | inconclusive: 89.1 µM [inhibitor, partial curve, poor fit]
40 | COc1cccc(C(=O)c2cn(CC(=O)NCc3ccco3)c3nc(C)ccc3c2=O)c1 | active: 39.8 µM
41 | Brc1ccc(OCCOCCOc2cccc3cccnc23)cc1 | inconclusive: 79.4 µM [inhibitor, partial curve, poor fit]
42 | Cc1oc(-c2cccs2)nc1CS(=O)CC(=O)NCCCN1CC(C)CC(C)C1 (stereo not drawn) | inactive
43 | C=CCSc1nnc(CSc2nc3sc4c(c3c(=O)[nH]2)CCCC4)n1-c1ccccc1 | inconclusive: 50.1 µM [inhibitor, partial curve]
44 | Cn1c(=O)c2c(nc(CN3CCN(c4ccccc4F)CC3)n2Cc2ccc(F)cc2)n(C)c1=O | inactive
45 | COC1CCC2(C)C(=CCC3C4CC(O)CC4(C)CCC32)C1 (stereo not drawn) | inconclusive: 28.2 µM [inhibitor, single point]
46 | CCCCOc1ccc(C(=O)NCCc2sc3nc(-c4ccc(OC)cc4)nn3c2C)cc1 | inactive

Row | SMILES | Potency
47 | COc1ccc(-c2c(C(F)(F)F)[nH]n3c(=O)cc(-c4ccccc4)nc23)cc1 | active: 89.1 µM
48 | Cc1ccc(C(=O)Nc2ccc(C(=O)O)cc2)cc1S(=O)(=O)N1CCC(C)CC1 | inactive
49 | O=C(O)c1ccccc1NS(=O)(=O)c1cccc(NS(=O)(=O)c2cc(Br)ccc2Br)c1 | inconclusive: 56.2 µM [inhibitor, partial curve]
50 | Cc1sc2ncnc(SCC(=O)N3CCCC3)c2c1C | inconclusive: 28.2 µM [inhibitor, partial curve, poor fit]
51 | Cn1nnnc1Sc1ncnc2scc(-c3ccccc3)c12 | inconclusive: 12.6 µM [inhibitor, full curve]
52 | COc1ccc(NC(=S)N(CCN(C)C)C(C)c2ccco2)cc1 (stereo not drawn) | inconclusive: 31.6 µM [inhibitor, partial curve, poor fit]
53 | OCC(CO)(CO)NCC(O)CN1c2ccccc2Sc2ccccc21 (stereo not drawn) | inconclusive: 44.7 µM [inhibitor, single point]
54 | O=C(c1cnn(C(=O)COc2ccc(Cl)cc2)c1)c1ccccc1O | inconclusive: 22.4 µM [inhibitor, partial curve]
55 | COc1ccc(C(=O)Nc2ccc(OC)c([N+](=O)[O-])c2)cc1Br | inconclusive: 28.2 µM [inhibitor, partial curve, poor fit]
56 | O=C(Nc1ccc(F)cc1)c1nc2c(nnn2Cc2cccc3ccccc23)c(=O)[nH]1 | inconclusive: 79.4 µM [inhibitor, partial curve, poor fit]
57 | O=C(CSc1nnc(-c2ccccn2)n1-c1ccccc1)Nc1ccc2c(c1)OCO2 | inconclusive: 39.8 µM [inhibitor, single point]
58 | COc1ccc(/C=c2\sc3nc(-c4ccccc4OC)nn3c2=O)c(OC)c1 | inconclusive: 12.6 µM [inhibitor, partial curve, poor fit]
59 | CCC1(C)Cc2c(sc3c2c2ncnn2c2nnc(SCC(=O)NCc4ccco4)n32)CO1 (stereo not drawn) | inconclusive: 28.2 µM [inhibitor, partial curve]
60 | CCC1OC2(C)OC(=N)C1(C#N)C(C#N)(C#N)C2c1ccccc1 (stereo not drawn) | inconclusive: 39.8 µM [inhibitor, single point]
61 | Cc1cccc2cc(CN(CCc3ccccc3)C(=O)N3CCOCC3)c3nnnn3c12 | inconclusive: 35.5 µM [inhibitor, single point]
62 | CCOC(=O)SC1=N/C(=C\c2ccc(N(C)C)cc2)C(=O)S1 | inactive
63 | Cc1[nH]c2ccccc2c1NC(=O)CN1CCN(c2cccc(C(F)(F)F)c2)CC1 | inconclusive: 31.6 µM [inhibitor, partial curve, poor fit]
64 | CSc1nc(SCCO)c2sc3nc(-c4ccco4)c4c(c3c2n1)CC(C)(C)OC4 | active: 79.4 µM
65 | O=C(CSCc1ccccc1Br)NNC(=S)NCc1ccco1 | inactive
66 | COc1cc(-c2nc(-c3ccc(NC(=O)c4ccc5c(c4)OCO5)cc3)no2)cc(OC)c1OC | inconclusive: 79.4 µM [inhibitor, partial curve, poor fit]
67 | CCCC1=Nc2cc(C(=O)NCCN3CCOCC3)ccc2Sc2ccccc21 | inconclusive: 89.1 µM [inhibitor, partial curve, poor fit]
68 | Cn1c(=NC(=O)c2cnccn2)sc2ccccc21 | inconclusive: 31.6 µM [inhibitor, single point]
